# Laboratory results taken from PubChem BioAssay AID1347165 (National Center for Advancing Translational Sciences (NCATS), 2019).
# The campaign covered roughly 220,000 compounds. About 5,700 (2.6%) were called active. This list was built around the results that the source calls inconclusive (neither active nor inactive); the mix of calls is not that of the screen. The call rests on the fitted dose curve; in most records, active means well fitted inhibition curve with a large enough effect; inconclusive means small, poorly fitted or top-dose-only effect; inactive means no such curve, though single readings can be large or run the other way. Potencies beside an inconclusive call are fits to weak or partial responses and may not hold up.
# Target: Lysine-specific demethylase 5B (Homo sapiens) (UniProt Q9UGL1)
# UniProt Q9UGL1, sequence (Q9UGL1 whole entry, looked up): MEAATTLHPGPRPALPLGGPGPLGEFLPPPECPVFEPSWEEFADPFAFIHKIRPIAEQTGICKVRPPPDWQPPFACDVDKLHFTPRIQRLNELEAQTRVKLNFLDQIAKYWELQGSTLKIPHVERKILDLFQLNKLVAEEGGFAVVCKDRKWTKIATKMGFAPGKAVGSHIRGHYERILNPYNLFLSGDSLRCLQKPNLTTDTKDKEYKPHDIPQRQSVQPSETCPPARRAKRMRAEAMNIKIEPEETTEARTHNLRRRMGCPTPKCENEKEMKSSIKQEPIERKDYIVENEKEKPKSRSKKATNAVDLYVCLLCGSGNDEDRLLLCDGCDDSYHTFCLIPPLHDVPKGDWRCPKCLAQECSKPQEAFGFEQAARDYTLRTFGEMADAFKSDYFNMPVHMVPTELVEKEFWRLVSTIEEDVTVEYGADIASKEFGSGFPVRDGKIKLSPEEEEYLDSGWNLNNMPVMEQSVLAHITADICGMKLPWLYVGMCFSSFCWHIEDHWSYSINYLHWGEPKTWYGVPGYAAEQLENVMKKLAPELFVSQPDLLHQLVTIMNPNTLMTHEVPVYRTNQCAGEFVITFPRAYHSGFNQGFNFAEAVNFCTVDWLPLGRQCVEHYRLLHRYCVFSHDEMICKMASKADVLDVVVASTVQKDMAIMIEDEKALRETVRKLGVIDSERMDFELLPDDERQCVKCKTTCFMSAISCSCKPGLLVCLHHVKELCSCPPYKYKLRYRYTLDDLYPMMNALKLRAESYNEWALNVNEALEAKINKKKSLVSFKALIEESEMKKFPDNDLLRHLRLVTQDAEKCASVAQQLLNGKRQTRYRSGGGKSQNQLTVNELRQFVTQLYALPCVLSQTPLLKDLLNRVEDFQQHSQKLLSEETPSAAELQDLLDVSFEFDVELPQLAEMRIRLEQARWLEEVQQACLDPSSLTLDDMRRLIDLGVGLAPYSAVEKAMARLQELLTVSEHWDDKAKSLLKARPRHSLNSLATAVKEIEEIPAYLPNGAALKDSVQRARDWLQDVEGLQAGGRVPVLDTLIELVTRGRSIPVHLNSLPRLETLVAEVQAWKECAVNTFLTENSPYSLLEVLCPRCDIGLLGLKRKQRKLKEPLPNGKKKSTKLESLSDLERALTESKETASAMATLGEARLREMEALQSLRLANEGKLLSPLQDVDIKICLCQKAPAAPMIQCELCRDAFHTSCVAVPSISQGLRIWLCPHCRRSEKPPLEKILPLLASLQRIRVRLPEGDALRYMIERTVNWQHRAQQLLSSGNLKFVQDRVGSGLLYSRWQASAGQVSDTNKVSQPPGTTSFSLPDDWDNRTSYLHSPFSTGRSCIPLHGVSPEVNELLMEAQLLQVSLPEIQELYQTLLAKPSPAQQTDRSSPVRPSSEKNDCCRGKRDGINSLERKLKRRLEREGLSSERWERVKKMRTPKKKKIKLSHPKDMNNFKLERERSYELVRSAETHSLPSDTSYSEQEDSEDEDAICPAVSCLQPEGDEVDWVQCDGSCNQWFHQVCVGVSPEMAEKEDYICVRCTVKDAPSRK
# Assay: Primary screen for KDM5B Histone Demethylases FDH-coupled qHTS; further: nearly all actives have a fitted effect of over 70% in size; on activity change, negative = inhibition: 0% is about no effect
# Conditions: FDH-coupled NADH fluorescence (FDH is formaldehyde dehydrogenase); activity change, negative = inhibition: at 57.7 µM (top of the series) unless noted
# Method in brief: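 Measured: NADH fluorescence change, 30 min, RT. System: KDM5BΔAP 200 nM final, H3K4me3 peptide, α-KG, Fe(II), ascorbate, NAD⁺ plus FDH, pH 7.5 HEPES. Compounds: titrated, 10 min pre-incubation with enzyme.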
# Potency means the concentration at half of the fitted maximal effect; tags describe the fitted curve by direction and shape.
SMILES,Potency,"activity change, negative = inhibition"
OCc1ccc(-c2cc(-c3cccnc3)c3cncn3c2)cc1,"inconclusive: 39.8 µM [inhibitor, partial curve, poor fit]",
O=C(COc1ccc2ccccc2c1)Nc1cccc2ncccc12,,inactive: -11.4%
COc1ccc(NC(=O)N2C[C@@H](F)C[C@H]2C(=O)N2CCc3ccccc3C2)c(C)c1,,inactive: -10.7%
CN(C)c1ccc(-c2nnc([C@H]3CCN(C4CCC4)C3)o2)cc1,active: 28.2 µM,
COCCn1ncc(N2CCC(NC(=O)C(C)c3ccccc3)CC2)cc1=O (stereo unspecified),,inactive: 2.25%
CCCCNC(=O)c1cc2c(=O)n3cccc(C)c3nc2s1,,inactive: -312%
N#Cc1nc(-c2cccs2)oc1N1CCCCC1,"inconclusive: 25.1 µM [inhibitor, partial curve, poor fit]",
Cc1ccc(S(=O)(=O)Nc2nc3ccccc3nc2Nc2ccc(F)cc2)cc1C,,inactive: 17.3%
CC(C)c1ccc2cc(C(=O)NCc3ccco3)[nH]c2c1,,inactive: -22.6%
COc1cccc(NC(=O)O[C@@H]2CO[C@H]3[C@@H]2OC[C@@H]3Nc2nccc(-c3ccc(-c4ccccc4)cc3)n2)c1,"inconclusive: 28.2 µM [inhibitor, partial curve, poor fit]",
CCN1c2cc(C(=O)N3CCN(c4ccccc4)CC3)ccc2C(=O)N2CCCCC21 (stereo unspecified),"inconclusive: 17.8 µM [inhibitor, partial curve, poor fit]",
CCc1c(C)sc(NC(=O)c2ccc(Cl)cc2Cl)c1C#N,"inconclusive: 39.8 µM [inhibitor, single point]",
Cc1cccc(OCC(=O)Nc2ccc3nc(Nc4cccc(C(F)(F)F)c4)cc(C)c3c2)c1,"inconclusive: 12.6 µM [inhibitor, partial curve, poor fit]",
CN(C)C[C@H]1O[C@H](Cc2cc(-c3ccccc3)on2)CC[C@@H]1O,,inactive: 43% [at 86.2 µM]
Oc1ccc(-c2nc(-c3ccc(Cl)cc3)cs2)cc1,,inactive: -8.65%
CC(C)CN(C)C(=O)c1cc(-c2cnn(C(C)C)c2)nc2cc(F)ccc12,active: 28.2 µM,
Cc1nnc(CSc2nnc(Nc3cccc(C)c3C)s2)o1,,inactive: 12.9%
COCCCNc1oc(-c2ccc(F)cc2)nc1C#N,"inconclusive: 22.4 µM [inhibitor, partial curve, poor fit]",
COCC1CN(C(C)=O)CC12CCN(Cc1ccc(OC)c(C)c1)CC2 (stereo unspecified),,inactive: -19.9%
Cc1ccc(-c2nnc3ccc(N(C)c4cccc(C)c4)nn23)nc1,,inactive: 5.76% [at 86.2 µM]
COCCCn1c(C)cc(C(=O)N2CC(COC)C3(CCNCC3)C2)c1C (stereo unspecified),active: 31.6 µM,
COc1cc(F)ccc1-c1ccnc2nc(C3CCCCC3)nn12,active: 28.2 µM,
C=CCOc1ccc(/C=C(\C#N)c2nc3ccccc3[nH]2)cc1,"inconclusive: 39.8 µM [inhibitor, single point]",
CN(CC(=O)Nc1ccc(Cl)c(Cl)c1)C(=O)c1ccc2ccccc2c1,,inactive: -6.71%

SMILES,Potency,"activity change, negative = inhibition"
Cc1ccc(N(Cc2ccco2)C(=O)Cn2cnc3ccc(F)cc3c2=O)cc1,,inactive: -0.0947%
CNC(=O)c1cc(-c2ccc(Cl)cc2)n(-c2ccccc2)n1,,inactive: 33.6%
COCCN1CCNc2cc(NCc3ccccc3)ncc2C1,"inconclusive: 39.8 µM [inhibitor, partial curve, poor fit]",
Cc1ccccc1NC(=O)CSc1nc2ccc(NC(=O)c3ccccc3)cc2s1,"inconclusive: 39.8 µM [inhibitor, single point]",
CS(=O)(=O)N1C[C@@H](Oc2ccccc2)C[C@H]1C(=O)N1CCOCC1,,inactive: 36.3%
CCCCNc1nc2c(c(=O)n(C)c(=O)n2C)n1Cc1ccccc1Cl,,inactive: 2.75%
O=C(O)COc1ccc(-c2nccc3c2C(=O)N(Cc2c[nH]c4ccccc24)CC(CNC(=O)Cc2ccccc2)O3)cc1 (stereo unspecified),,inactive: 14.6%
Cc1ccccc1-c1ccc(COc2ccc3c(cnn3CCC(=O)O)c2)cc1,"inconclusive: 56.2 µM [inhibitor, single point]",
COc1ccc(C(=O)Oc2c(Sc3ccccc3)c(C)nn2-c2ccccc2)cc1OC,"inconclusive: 15.8 µM [inhibitor, partial curve, poor fit]",
Cc1ccc(NC(=O)CN2C(=O)CSc3ccc(S(=O)(=O)N4CCCC4)cc32)c(C)c1,,inconclusive: -36.4% [inhibitor]
CC1=CC(=O)C2C3C=CC(C3)C2/C1=N/OC(=O)c1ccc(C)cc1 (stereo unspecified),,inactive: -12.6%
CCc1noc(-c2ccn3c(CNC(=O)CCc4ccccc4)nnc3c2)n1,active: 25.1 µM,
O=C(Nc1ccc2nc(SCC(=O)N3CCCc4ccccc43)sc2c1)c1cccc(Cl)c1,"inconclusive: 2.82 µM [inhibitor, full curve, poor fit]",
Cn1c(=O)n(C)c2cc(SCc3ccco3)c(NC(=O)c3ccc(C(C)(C)C)cc3)cc21,"inconclusive: 25.1 µM [inhibitor, partial curve, poor fit]",
COC(=O)[C@@H]1Cc2c([nH]c3ccccc23)[C@H]2C[C@@H](NCCCn3ccnc3)C[C@@H](c3ccccc3)N21,"inconclusive: 20 µM [inhibitor, partial curve, poor fit]",
CCOc1ccc(NC(=O)c2ccc3c(c2)N(CC)C2CCCN2C3=O)cc1 (stereo unspecified),"inconclusive: 12.6 µM [inhibitor, partial curve, poor fit]",
CCN(CC)S(=O)(=O)c1ccc(NC(=S)Nc2ccc(F)cc2)cc1,"inconclusive: 20 µM [inhibitor, single point]",
CCOC(=O)CSc1nc2sc3c(c2c(=O)n1-c1ccc(OC)cc1)CCN(C)C3,"inconclusive: 39.8 µM [inhibitor, single point]",
Cc1ccc(NC(=O)N2C[C@@H](Oc3cccnc3)C[C@H]2C(=O)N2CCOCC2)cc1C,,inactive: 11.6%
CCc1ccccc1Nc1cc(C(=O)NCCc2ccccc2)c2ccccc2n1,"inconclusive: 35.5 µM [inhibitor, partial curve, poor fit]",
COc1ccc(N2CCN(Cc3cc(=O)oc4ccc(OC)cc34)CC2)cc1,"inconclusive: 15.8 µM [inhibitor, partial curve, poor fit]",
COc1ccccc1NC(=O)C1=C(C)Nc2nc3ccccc3n2C1c1cccc(Br)c1 (stereo unspecified),"inconclusive: 35.5 µM [inhibitor, single point]",
O=C(Cn1c(=O)n(-c2ccc(F)cc2)c(=O)c2sc3ccccc3c21)NC1CCCCC1,"inconclusive: 7.94 µM [inhibitor, partial curve, poor fit]",
CC(C)NC(=O)N1Cc2[nH]cnc2C[C@H]1c1nc(-c2ccc3c(c2)OCO3)no1,"inconclusive: 31.6 µM [inhibitor, partial curve, poor fit]",

SMILES,Potency,"activity change, negative = inhibition"
Cc1oc(-c2cccc(Br)c2)nc1Cn1c(=O)cc(-c2ccccc2)c2c(C)nn(C)c21,,inactive: -5.66%
Cc1cc(C(=O)NCc2cccnc2)c(C)s1,,inactive: 9.35%
CCc1nc2onc(C)c2c(=O)n1CC(=O)O,"inconclusive: 28.2 µM [inhibitor, partial curve, poor fit]",
O=C(c1cccc(Cl)c1)N(Cc1ccco1)Cc1ccccc1Cl,"inconclusive: 8.91 µM [inhibitor, partial curve, poor fit]",
Cc1ccc(C)c(S(=O)(=O)N2CCN(Cc3cccc4cccnc34)CC2)c1,,inactive: -24.4%
N#C/C(=C/c1ccco1)C(=O)Nc1ccc(N2CCOCC2)cc1,,inactive: 15%
COc1ccc2c(C)c(CCC(=O)NC3CCS(=O)(=O)C3)c(=O)oc2c1 (stereo unspecified),"inconclusive: 25.1 µM [inhibitor, partial curve, poor fit]",
O=C(Nc1ccc(Cl)cc1)c1nnc(C(=O)N2CCC(CC(=O)N3CCCC3)CC2)s1,,inactive: -6.12%
COC(=O)/C(C#N)=C\c1cc(Br)c(O)c(OC)c1,"inconclusive: 39.8 µM [inhibitor, single point]",
Cc1ccc(C(=O)NC2CC(C)(C)Cc3nc(N4CCOCC4)ncc32)cn1 (stereo unspecified),"inconclusive: 31.6 µM [inhibitor, single point]",
COc1ccc(-c2noc(Cn3c(=O)c4ccccc4n(CC(=O)Nc4cccc(C(F)(F)F)c4)c3=O)n2)cc1,"inconclusive: 25.1 µM [inhibitor, partial curve, poor fit]",
O=C(NCC(F)F)C1CCCN1c1nc2ncccc2o1 (stereo unspecified),"inconclusive: 31.6 µM [inhibitor, partial curve, poor fit]",
COc1ccc(NC(=O)CCc2c(C)c3ccc(OC)cc3oc2=O)c(OC)c1,,inactive: -27.4%
CC(C)C(=O)Nc1ccc2c(c1)CN(CCc1ccc(F)cc1)C(=O)C(C)O2 (stereo unspecified),"inconclusive: 28.2 µM [inhibitor, single point]",
Cc1nnc(NC(=O)C2CC(c3ccccc3)=NO2)s1 (stereo unspecified),,inactive: 8.49%
COC(=O)c1[nH]c2ccccc2c1NC(=O)CN1CCC2(CC1)OCCO2,"inconclusive: 31.6 µM [inhibitor, single point]",
CC1(CCCCN2CCOCC2)COc2ccc(C(=O)NCc3ccccc3)cc2N1 (stereo unspecified),active: 39.8 µM,
Cc1cc(C)cc(NC(=O)CC2C(=O)Nc3nc(-c4ccccc4)nn32)c1 (stereo unspecified),,inactive: 10.1%
CCN1CCc2[nH]cnc2C12CCN(C(=O)c1cccnc1SC)CC2,"inconclusive: 20 µM [inhibitor, single point]",
Cc1cc(CN2C[C@@H](CO)[C@H](c3ccccn3)C2)n(C)n1,,inactive: -27.5%
Cc1ccc(-c2noc([C@@H]3C[C@H](NC(=O)COc4ccccc4)CN3C)n2)cc1,,inactive: -18.4% [at 86.2 µM]
Cc1cccc(CS(=O)(=O)c2ncc(Cl)c(C(=O)Nc3nc4ccc(F)cc4s3)n2)c1,"inconclusive: 2.82 µM [inhibitor, full curve, poor fit]",
CC(=O)N[C@H]1C[C@@H](c2nc(-c3ccccc3)no2)N(C)C1,,inactive: -5.86% [at 115 µM]
